According to PubChem BioAssay AID2675 (National Center for Advancing Translational Sciences (NCATS), 2010):
About 100 (0.036%) of roughly 280,000 compounds were called active. This list was built around the results that the source calls inconclusive (neither active nor inactive); the mix of calls is not that of the screen. Calls follow the shape of the dose curve; as a rule, active = well fitted inhibition curve with a large enough effect in the signal ratio, with a control signal flat (not every such curve was filed as active); inconclusive = small, poorly fitted or top-dose-only effect, or effect the other way, or a change in a side signal; inactive = no such curve, though single readings can be large or run the other way; the % refers to the signal ratio. Potencies of inconclusive entries are doubtful fits and often do not repeat. A note “side channel” means that the fit belongs to a control or component signal, not to the main read-out.

What follows are compounds tested against Muscleblind-like protein 1 (Homo sapiens) (UniProt Q9NR56) (assay: qHTS Assay for Inhibitors of MBNL1-poly(CUG) RNA binding). Conditions: TR-FRET MBNL1-His/biotin-(CUG)12 binding, 665/545 ratio; activity change, negative = inhibition: at 57.5 µM (top of the series).
Procedure, shortened: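 Ratiometric TR-FRET (665 over 545 nm, excitation 340 nm) tracks disruption of MBNL1-His/biotin-(CUG)12 complex after 60 min at room temperature, with compounds at 92 nM to 58 uM final.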
% is scaled to controls: 0 for no effect and ±100 for the full control effect; potency is read from the fitted curve at half-maximal effect; tags tell the direction and shape of the fitted curve or compound fluorescence and quenching.

Chain of UniProt Q9NR56 (Q9NR56 whole entry, looked up): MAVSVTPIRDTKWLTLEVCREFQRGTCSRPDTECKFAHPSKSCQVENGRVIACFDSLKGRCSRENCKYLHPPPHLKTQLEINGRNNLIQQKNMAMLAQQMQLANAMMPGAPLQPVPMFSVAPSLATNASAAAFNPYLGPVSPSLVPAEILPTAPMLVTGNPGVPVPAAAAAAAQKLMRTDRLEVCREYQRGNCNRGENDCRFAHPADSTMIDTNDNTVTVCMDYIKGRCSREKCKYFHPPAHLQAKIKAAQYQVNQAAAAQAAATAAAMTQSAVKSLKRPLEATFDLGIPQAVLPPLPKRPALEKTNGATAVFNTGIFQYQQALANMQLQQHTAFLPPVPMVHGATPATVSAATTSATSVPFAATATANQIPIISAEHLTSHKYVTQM

| SMILES | Potency | activity change, negative = inhibition |
| --- | --- | --- |
| COc1ccccc1N(Cc1cc(=O)[nH]c2ccccc12)C(=O)c1ccc([N+](=O)[O-])cc1 | inconclusive: 2.51 µM [quencher, side channel, partial curve] | – |
| COc1ccc(CN2C(=O)c3ccccc3C2C(=O)NC2CCCC2)c(OC)c1 (configuration not stated) | – | inactive: -5.14% |
| CN(C)S(=O)(=O)c1cccc(C(=O)Nc2ccc3c(c2)CCC3)c1 | – | inactive: 1.03% |
| O=C(N/N=C/c1ccc(O)c([N+](=O)[O-])c1)C1CC1(c1ccccc1)c1ccccc1 (configuration not stated) | inconclusive: 17.8 µM [quencher, side channel, partial curve] | – |
| Cn1c2ccccc2c(=O)c2ccc(F)cc21 | inconclusive: 25.1 µM [quencher, side channel, single point] | – |
| COc1ccc(-c2cc(C)no2)cc1S(=O)(=O)N(C)c1cccc(C)c1 | – | inactive: -3.3% |
| COc1ccc(NC(=O)c2ccc(NCCCN3CCOCC3)c([N+](=O)[O-])c2)cc1 | inconclusive: 11.2 µM [quencher, side channel, partial curve] | – |
| Cc1cccc(NC(=O)CN2C(=O)N/C(=C\c3ccccc3OCc3ccc(C(=O)O)cc3)C2=O)c1 | inconclusive: 25.1 µM [quencher, side channel, single point] | – |
| NS(=O)(=O)c1ccc(CCNC(=O)c2cc3ccccc3oc2=O)cc1 | inconclusive: 2.82 µM [quencher, side channel, full curve, poor fit] | – |
| O=C(N/N=C/c1sc(N2CCOCC2)nc1-c1ccccc1)c1cccc(S(=O)(=O)N2CCCC2)c1 | – | inactive: 7.97% |
| N/C(=N\OC(=O)c1ccc2c(c1)OCO2)c1cccc([N+](=O)[O-])c1 | inconclusive: 3.55 µM [quencher, full curve] | – |
| CS(=O)(=O)c1ccc2nc(NC(=O)C3CC(=O)N(c4ccccc4)C3)sc2c1 (configuration not stated) | – | inactive: -3.21% |
| COc1ccc(NC(=O)c2ccc3nccnc3c2)cc1 | inconclusive: 14.1 µM [quencher, side channel, partial curve] | – |
| Cc1ccsc1/C=N/NC(=O)C(O)c1ccccc1 (configuration not stated) | inconclusive: 31.6 µM [quencher, side channel, single point] | – |
| O=C(CCCCCNC(=O)c1ccccc1Br)N=Nc1c(O)[nH]c2ccccc12 | inconclusive: 3.55 µM [quencher, side channel, partial curve] | – |
| COc1ccc(N=c2oc3cc(O)ccc3cc2C(=O)NCC2CCCO2)c(OC)c1 (configuration not stated) | – | inactive: 24.5% |
| CC(C)C(=O)N1CCN(c2ccc(NC(=O)c3ccc([N+](=O)[O-])o3)cc2)CC1 | inconclusive: 12.6 µM [quencher, side channel, partial curve] | – |
| Cc1nn(Cc2ccc(F)cc2)c(C)c1NC(=O)c1cc2ncc(Br)cn2n1 | inconclusive: 35.5 µM [quencher, side channel, single point] | – |
| CCn1c(N)c(C(N)=O)sc1=S | inconclusive: 28.2 µM [quencher, side channel, single point] | – |
| Cc1cccc(C)c1NC(=S)/C(=C(\[O-])c1cccs1)[n+]1ccccc1 | – | inactive: -7.65% |
| Nc1c(/C=C2\C=Nc3ccccc32)c(=O)nc2sc(CC(=O)N3CCOCC3)nn12 | inconclusive: 10 µM [quencher, side channel, partial curve] | – |

| SMILES | Potency | activity change, negative = inhibition |
| --- | --- | --- |
| CN(C)S(=O)(=O)c1ccc(C(=O)NCc2cccs2)cc1 | – | inactive: -11.2% |
| O=C(Nc1ccc(S(=O)(=O)N2CCOCC2)cc1)c1ccc([N+](=O)[O-])o1 | inconclusive: 3.16 µM [quencher, side channel, full curve] | – |
| Nc1ccc(N=Nc2ccccc2)c(N)n1 | inconclusive: 5.62 µM [quencher, side channel, partial curve] | – |
| COc1ccc(S(=O)(=O)N2CCCCCC2)cc1C(=O)OCC(=O)NC(N)=O | – | inactive: -1.55% |
| Cc1c(NC(=O)Nc2cccc([N+](=O)[O-])c2)c(=O)n(-c2ccccc2)n1C | inconclusive: 10 µM [quencher, side channel, partial curve] | – |
| CC1=NN(c2ccccc2C(=O)O)C(=O)C1N=Nc1ccccc1 (configuration not stated) | – | inactive: 13.3% |
| CCOC(=O)C1=C(CSc2nc3c(cc2C#N)CN(C)CC3)OC(N)=C(C#N)C1c1ccc(F)cc1 (configuration not stated) | inconclusive: 10 µM [quencher, side channel, partial curve] | – |
| O=C(O)c1cccc(COc2ccc3c(c2)CCC3)c1 | – | inactive: 3.94% |
| CSCCC(NC(=O)c1ccc([N+](=O)[O-])cc1Cl)C(=O)OCC(=O)N(C)C (configuration not stated) | inconclusive: 15.8 µM [quencher, side channel, partial curve] | – |
| O=C(Nn1c(O)c(C=C2N=c3ccccc3=N2)sc1=S)c1ccccc1 | inconclusive: 31.6 µM [quencher, side channel, single point] | – |
| COCCCn1cnnc1SCc1nc2sc(C(C)=O)c(C)c2c(=O)[nH]1 | inconclusive: 31.6 µM [quencher, side channel, partial curve] | – |
| O=C(NCCN1C(=O)S/C(=C\c2ccc(OC(F)F)cc2)C1=O)c1cnccn1 | inconclusive: 20 µM [quencher, side channel, partial curve] | – |
| CC(Nc1cc(N2CCN(C(=O)C(C)(C)C)CC2)ccc1[N+](=O)[O-])c1ccccc1 (configuration not stated) | inconclusive: 14.1 µM [quencher, side channel, partial curve] | – |
| CCOCCCNC(=O)CCCn1nc(C)n2c(cc3sccc32)c1=O | – | inactive: 7.66% |
| O=C1CCN(Cc2ccc([N+](=O)[O-])cc2)CCN1[C@H](CO)c1ccccc1 | inconclusive: 14.1 µM [quencher, side channel, partial curve] | – |
| COC(=O)c1ccccc1C(=O)c1cccc2ccccc12 | inconclusive: 28.2 µM [quencher, side channel, single point] | – |
| Cc1cccc2nc3ccccc3nc12 | inconclusive: 17.8 µM [quencher, side channel, partial curve] | – |
| COC(=O)/C=C1\C(=O)N(c2nc3ccc(OC)cc3s2)C(=S)N1c1ccc(F)cc1 | inconclusive: 28.2 µM [quencher, side channel, single point] | – |
| O=C(O)c1cccc(N2C(=O)C3CC=C(Cl)CC3C2=O)c1 (configuration not stated) | – | inactive: 3.43% |
| CCOc1ccc(NS(=O)(=O)c2cc(NC(=O)c3cccc(C)c3)ccc2Cl)cc1 | – | inactive: -2.91% |
| Cc1ccc(-c2cc(-c3ccco3)c(C#N)c(=O)[nH]2)cc1 | inconclusive: 8.91 µM [quencher, side channel, partial curve] | – |

| SMILES | Potency | activity change, negative = inhibition |
| --- | --- | --- |
| CCCCn1c(N)c(N(CCC(C)C)C(=O)c2ccc([N+](=O)[O-])o2)c(=O)[nH]c1=O | inconclusive: 28.2 µM [quencher, side channel, partial curve] | – |
| O=C(c1cnn2c(C(F)(F)F)cc(-c3cccs3)nc12)N1CCCC1 | inconclusive: 22.4 µM [quencher, partial curve] | – |
| CCN(CC)S(=O)(=O)c1cccc2nsnc12 | inconclusive: 7.08 µM [quencher, side channel, partial curve] | – |
| Cc1c(Cc2ccccc2)c(=O)oc2cc(OCC(=O)NCc3ccccn3)ccc12 | – | inactive: 7.82% |
| O=C(Nc1ccccc1)c1ccc(Br)c(S(=O)(=O)Nc2cccnc2)c1 | inconclusive: 25.1 µM [fluorescent, side channel, partial curve] | – |
| NC(=O)Cn1nc([N+](=O)[O-])nc1Oc1ccccc1C(=O)N1CCOCC1 | inconclusive: 14.1 µM [quencher, side channel, partial curve] | – |
| C=CCOc1ccc2c(OC)c3ccoc3nc2c1OC | inconclusive: 17.8 µM [quencher, side channel, single point] | – |
| CC(C)CN1C(=O)C(=O)N(CC(=O)NC2CCCc3ccccc32)C1=O (configuration not stated) | – | inactive: 4.81% |
| OC(c1ccccc1)c1nccc2ccccc12 (configuration not stated) | – | inactive: 3.34% |
| CCC(OC(C)=O)c1cc2c(cc1[N+](=O)[O-])OCCO2 (configuration not stated) | – | inactive: 12.2% |
| COc1ccc(NC(=O)CC(c2ccco2)C(C)C)cc1 (configuration not stated) | inconclusive: 0.708 µM [fluorescent, side channel, single point] | – |
| Cc1c(NC(=O)C(C)OC(=O)c2c3c(nc4ccccc24)CCC3)c(=O)n(-c2ccccc2)n1C (configuration not stated) | – | inactive: 2.6% |
| Cc1cc(NC(=O)/C=C/c2ccc(F)cc2)n(-c2nc3ccccc3[nH]2)n1 | – | inactive: -6.43% |
| COc1cccc(NC(=O)c2ccc(NCCCN3CC(C)CC(C)C3)c([N+](=O)[O-])c2)c1 (configuration not stated) | inconclusive: 10 µM [quencher, side channel, partial curve] | – |
| O=C(CSc1nc2ccc([N+](=O)[O-])cc2[nH]1)NC1CCCCCC1 | inconclusive: 10 µM [quencher, side channel, partial curve, poor fit] | – |
| Oc1c(C=NCc2ccncc2)sc2ccccc12 | inconclusive: 14.1 µM [quencher, side channel, partial curve] | – |
| CN(C)c1ccnc2sc(C(=O)c3ccccc3)c(N)c12 | inconclusive: 0.631 µM [quencher, side channel, full curve] | – |
| Cc1cc(O)c(CN(C)C)c2c1C(=O)/C(=C/c1ccco1)O2 | inconclusive: 25.1 µM [quencher, side channel, partial curve] | – |
| COc1ccc(CCNC(=O)c2cc3c(=O)n4ccccc4nc3n(C3CCCCC3)c2=N)cc1 | inconclusive: 12.6 µM [quencher, side channel, partial curve] | – |
| Cc1ncc(CN2CCN(Cc3ccccc3)C(CCO)C2)s1 (configuration not stated) | – | inactive: -4.16% |
